This is one part of the list.
T1: UNK ZnF1-3 (human, UniProt Q9C0B0 31-174)
T1 sequence: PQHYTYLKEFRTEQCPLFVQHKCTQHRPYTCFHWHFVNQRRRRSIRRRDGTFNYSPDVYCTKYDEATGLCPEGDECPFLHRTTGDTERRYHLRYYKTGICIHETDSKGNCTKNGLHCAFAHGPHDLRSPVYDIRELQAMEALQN

B1: chr7:44244176:44244177:+_ENSG00000106636_ENST00000223369|hu_mus|hu_hu_hu_mus_False|98_98 (ssRNA)
RNA: GGGAGUUCUACAGUCCGACGAUCACUGUCGCUCCGGACGUAGACGUGGCAAAGAUACUCUUGUUCUUUGACAGAAGCUCUGCUGCCUUUCCCCGAGCGUUCCACAAUCAGUUGACUUGUAAAGGUCAUGAAUUCCUGCACACUCAACAGAGGAUUGAGCAUCA
B2: chr7:106632155:106632156:-_ENSMUSG00000030744_ENSMUST00000032998|mus_mus|FALSE|FALSE (ssRNA)
RNA: GGGAGUUCUACAGUCCGACGAUCAACUUCCUCUUCUUGGAAAUCUGCACCGCCAUCUUGCAGCCGCGCGCCGCUGAAAGGAAAGGAAGUGGCUCGCGGGCGGAAGUAGGUAUAUAGGGCGGGAGCAAUGACGCCGCGCAGCGCCAACAGAGGAUUGAGCAUCA
B3: chr14:96998876:96998877:+_ENSG00000090060_ENST00000216277|hu_mus|FALSE|FALSE (ssRNA)
RNA: GGGAGUUCUACAGUCCGACGAUCGAUAAAGCUGGCAAGUUCUUGCUACUAGCAUAGCCCAGGAAACACCACCGAGGAAACCUAAUAUAUUGGAAUAGAUGUUGUGCCGUUUGGCCCACAGUUUGAUGGCUCUCAGAGUUAACCCAACAGAGGAUUGAGCAUCA
B4: chr7:140404665:140404666:+_ENSG00000090266_ENST00000247866|hu_mus|FALSE|FALSE (ssRNA)
RNA: GGGAGUUCUACAGUCCGACGAUCUGCUCCUACUCGUCCAGAGAGUUUACAGUGUCAGUCCUCGUCAUCAGGAGGGAUUCCCAGUUCUUCAUCUGUCCACUGUGAAGGAUCUGGAUAUGAAAAGUGACCCAGCACAGCAUCCGACAACAGAGGAUUGAGCAUCA
B5: chr5:64648305:64648306:+_ENSMUSG00000029174_ENSMUST00000119756|mus_hu|FALSE|FALSE (ssRNA)
RNA: GGGAGUUCUACAGUCCGACGAUCCUGCACAAUAUUGUGUCCGCUAAUGAGGUGGUUCUCAAUGUCGCUCUCCUCGAAGGAGCUGAAGAAGCCGCUGCUUCGGAGGCCCCCAUCCUGCAGCUCCUUCCUAAAGGCCAGCGAGCGCAACAGAGGAUUGAGCAUCA
B6: chr7:107556004:107556005:+_ENSG00000091140_ENST00000440410|hu_mus|FALSE|FALSE (ssRNA)
RNA: GGGAGUUCUACAGUCCGACGAUCUAUACGUUGAAAAUUUUUUGAUAUCUCCAUGUCAAUUCCAAUUCCACCCACAUGACCCAAAAAUUCAACUGCUGUCACAUCUGCACCAAGUCUUUGCCAAACUGAACCCAGUUCCACACCCAACAGAGGAUUGAGCAUCA
B7: chr3:135071361:135071362:-_ENSMUSG00000028165_ENSMUST00000029815|mus_mus|FALSE|FALSE (ssRNA)
RNA: GGGAGUUCUACAGUCCGACGAUCAAGGGGUUUUACUGCCUCAAAAUAUUGUUGAUGGCAAUUAUUUUUCAUAAUUCUUCUAAAAGCAGCAGAGUUCCACAAAAGGCCAAAAAAAUGGCAAAUGACUUCAAAUGAGCAAAACAACAACAGAGGAUUGAGCAUCA
B8: chr11:118268936:118268937:-_ENSMUSG00000025575_ENSMUST00000017620|mus_hu|FALSE|FALSE (ssRNA)
RNA: GGGAGUUCUACAGUCCGACGAUCCCGUGGGGCCCGGGGGUCCAGUGCCCGCACCACUAUGGGGCCCGGGACUGGGCUCCCUGUCCAGACCUCCAACCCAGGCACAGUUCCAAAAAGAACAAAACAAAACAAAAGUGCACUCCUCAACAGAGGAUUGAGCAUCA
B9: 98656908_98657028_562_3pUTR_ENSG00000147649_ENST00000336273|human|control|control (ssRNA)
RNA: GGGAGUUCUACAGUCCGACGAUCCGCGGCCGGCACGGCCGCCGCCUCCUCCCGCUUGCGGGGCGGGCUCCUCCGCUUUUUGCGGGCGCCGGCGCAAGCCGCGGCCCAGCCGUAGCCCAGCAGAAACAGCAGCAGCAGCCCGAGCAACAGAGGAUUGAGCAUCA
B10: chr16:94651144:94651145:+_ENSMUSG00000040785_ENSMUST00000117648|mus_hu|mus_mus_mus_hu_True|48_68 (ssRNA)
RNA: GGGAGUUCUACAGUCCGACGAUCAUUUUCUUGAAUCAAGUGGCGAAUAACAUAGUCCACUGCUUCAUGGACAAAAUUUCUGCUAGAAAAGCAUGUUGUAUAGUCUUCUGUGCUCAAAACUUUCCAAGAAAGCAAUUCUUUGAGCAACAGAGGAUUGAGCAUCA
B11: 7304751_7309597_396_CDS_ENSMUSG00000024764_ENSMUST00000025675|mouse|control|control (ssRNA)
RNA: GGGAGUUCUACAGUCCGACGAUCACAUUCAAUGGAGACAUUCAACCCAUUGCGGUCAUACUUCUUGAAGACUGGGAAUGCCUCCAGAGGGUCUCCAAGCCUGUUGGCAGCAUCCACUUUGGCACACACAGCAUCCAUGGCCGCCAACAGAGGAUUGAGCAUCA
B12: 41572908_41573028_6472_CDS_ENSG00000100393_ENST00000263253|human|control|control (ssRNA)
RNA: GGGAGUUCUACAGUCCGACGAUCGCAACCCUUGGUAUGCUGCACAACCCGCUUCAUCUUCUGGCAGGAUGGCAGUGAGCAAUUGGCAUUCCGACACUGGCAAGCAUGGACCAGAGACUGGAUGCAGCGCUGGAUACUCAGGCGCAACAGAGGAUUGAGCAUCA
B13: chr11:77336104:77336105:-_ENSG00000074201_ENST00000525064|hu_mus|hu_hu_hu_mus_False|68_78 (ssRNA)
RNA: GGGAGUUCUACAGUCCGACGAUCCUCACACAUUGCUGUGAACAUCGCCUCCAAUGCUGAUUUAUCACUAGGCACAAAUCGAAAUUCAGAAAUGGGUUCAACAUCAUCAUUGUCUUCCUCAUCUUCAUCAGAGAGAGGUUCUUUCAACAGAGGAUUGAGCAUCA
B14: 120819733_120819853_4936_CDS_ENSMUSG00000049878_ENSMUST00000056635|mouse|control|control (ssRNA)
RNA: GGGAGUUCUACAGUCCGACGAUCUGAACACCCUUUCUGACCGACAUCUUGUUCAGCUGGGCAAGUAGAAUCAGUGUUUGGGAGGGGCACACUGCUGUCUCCUGGGGCUCCAUUCUCUGUGUGCACCGAUUCACAGCUAGUACUCAACAGAGGAUUGAGCAUCA

What follows are binders tested against T1, UNK ZnF1-3 (assay: nsRBNS (natural sequence RNA bind-n-seq); RBNS binding buffer (assumed for nsRBNS): 25 mM Tris pH 7.5, 150 mM KCl, 3 mM MgCl2, 0.01% Triton X-100, 500 ug/ml BSA, 20 U/ml SUPERase-In, 4 C; UNK is unkempt and MSI1 is Musashi-1; names of the RNAs are library labels; protein concentration not given here; high values mean tight binding).

Binder | binding signal [enrichment R]
B1 | 0.724
B2 | 0.95
B3 | 1.42
B4 | 1.35
B5 | 0.523
B6 | 1.17
B7 | 1.26
B8 | 0.916
B9 | 0.9
B10 | 0.47
B11 | 0.933
B12 | 0.995
B13 | 0.926
B14 | 0.893

Reference: paper PMC12136788
